The chains are these.
B1: TEV protease; numbered along this chain (parent)
chain: MGESLFKGPRDYNPISSSICHLTNESDGHTTSLYGIGFGPFIITNKHLFRRNNGTLVVQSLHGVFKVKDTTTLQQHLVDGRDMIIIRMPKDFPPFPQKLKFREPQREERICLVTTNFQTKSMSSMVSDTSCTFPSGDGIFWKHWIQTKDGQCGSPLVSTRDGFIVGIHSASNFTNTNNYFTSVPKNFMELLTNQEAQQWVSGWRLNADSVLWGGHKVFMVKPEEPFQPVKEATQL

Variants of B1 are the subject of this experiment. The experiment can be described thus: raw area under fraction-flipped curve 0-4 h after induction (AUC4h, not background-subtracted), DNA-recorder readout of cleavage of the substrate (dimensionless); higher = more cleavage of the substrate by the protease variant. Conditions: temperature: 34 °C; time window: 0-4 h after rhamnose induction. As for the experimental part: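 In vivo DNA recorder in E. coli TOP10(DE3) ΔrhaA at 34 °C. Each TEVp single-site mutant (parent TEVp 0) is paired with a single-site variant of the 7-mer TEVs (canonical ENLYFQ|S). The substrate sits between flexible linkers in a Bxb1-sfGFP-TEVs-SsrA fusion, so cleavage stabilises Bxb1 and speeds flipping of a recombination array, read by NGS. The value is the raw area under the fraction-flipped curve over 0-4 h after rhamnose induction (AUC4h), with ≥20 reads per time point. It is not background-subtracted; inactive controls average about 0.047.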

Some of the results follow. Sequences were assembled here from the parent chain. Inactive controls read about 0.05.

The results in this text go back to the supplement of paper PMC12217912.
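Note: Bxb1 expression induced with 0.2% (w/v) L-rhamnose at OD600 near 0.5, cultures sampled hourly, flipped fraction per protease–substrate barcode pair counted by paired-end Illumina sequencing.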

Turning to MGESLFKGPRDYNPISSSICHLTNESDGHTTSLYGIGFGPFIITNKHLFRRNNGTLVVQSLHGVFKVKDTTTLQQHLVDGRDMIIIRMPKDFMPFPQKLKFREPQREERICLVTTNFQTKSMSSMVSDTSCTFPSGDGIFWKHWIQTKDGQCGSPLVSTRDGFIVGIHSASNFTNTNNYFTSVPKNFMELLTNQEAQQWVSGWRLNADSVLWGGHKVFMVKPEEPFQPVKEATQL [P93M], the “area with substrate EALYFQS” value is 0.14, the “area with substrate ECLYFQS” value worked out at 0.1, the “area with substrate EDLYFQS” value is 0.127 and the “area with substrate EFLYFQS” value was found to be 0.087. Besides, the “area with substrate EKLYFQS” value turned out to be 0.123, the “area with substrate EQLYFQS” value was determined as 0.11, the “area with substrate ERLYFQS” value was 0.112 and the “area with substrate ESLYFQS” value was 0.101. The “area with substrate ETLYFQS” value worked out at 0.134, the “area with substrate EVLYFQS” value amounted to 0.124, the “area with substrate EWLYFQS” value came out at 0.0936 and the “area with substrate EYLYFQS” value was determined as 0.127.

With MGESLFKGPRDYNPISSSICHLTNESDGHTTSLYGIGFGPFIITNKHLFRRNNGTLVVQSLHGVFKVKDTTTLQQHLVDGRDMIIIRMPKDFPPFPQLLKFREPQREERICLVTTNFQTKSMSSMVSDTSCTFPSGDGIFWKHWIQTKDGQCGSPLVSTRDGFIVGIHSASNFTNTNNYFTSVPKNFMELLTNQEAQQWVSGWRLNADSVLWGGHKVFMVKPEEPFQPVKEATQL [K98L], the “area with substrate EALYFQS” value is 0.0783, the “area with substrate ECLYFQS” value was found to be 0.104, the “area with substrate EDLYFQS” value stood at 0.125 and the “area with substrate EFLYFQS” value worked out at 0.0916. Further, the “area with substrate EGLYFQS” value was 0.119, the “area with substrate EILYFQS” value was 0.0932, the “area with substrate EKLYFQS” value came to 0.102 and the “area with substrate ELLYFQS” value was 0.123. The “area with substrate EMLYFQS” value was determined as 0.154, the “area with substrate EQLYFQS” value was 0.134, the “area with substrate ERLYFQS” value turned out to be 0.0831 and the “area with substrate ESLYFQS” value stood at 0.0951. For the same variant, the “area with substrate EVLYFQS” value came to 0.105.

As for MGESLFKGPRDYNPISSSICHLTNESDGHTTSLYGIGFGPFIITNKHLFRRNNGTLVVQSLHGVFKVKDTTTLQQHLVDGRDMIIIRMPKDFPPFPQCLKFREPQREERICLVTTNFQTKSMSSMVSDTSCTFPSGDGIFWKHWIQTKDGQCGSPLVSTRDGFIVGIHSASNFTNTNNYFTSVPKNFMELLTNQEAQQWVSGWRLNADSVLWGGHKVFMVKPEEPFQPVKEATQL [K98C], the “area with substrate EALYFQS” value amounted to 0.135, the “area with substrate ECLYFQS” value stood at 0.0761, the “area with substrate EDLYFQS” value stood at 0.109 and the “area with substrate EELYFQS” value stood at 0.111. The “area with substrate EFLYFQS” value came to 0.106, the “area with substrate EGLYFQS” value turned out to be 0.0928, the “area with substrate EILYFQS” value was found to be 0.082 and the “area with substrate EKLYFQS” value was 0.0995. Further, the “area with substrate ELLYFQS” value amounted to 0.0871, the “area with substrate EMLYFQS” value came to 0.119, the “area with substrate EPLYFQS” value came out at 0.113 and the “area with substrate EQLYFQS” value was determined as 0.107. The “area with substrate ERLYFQS” value amounted to 0.0903, the “area with substrate ESLYFQS” value was 0.109, the “area with substrate EVLYFQS” value is 0.0808 and the “area with substrate EYLYFQS” value came to 0.101.

For the variant MGESLFKGPRDYNPISSSICHLTNESDGHTTSLYGIGFGPFIITNKHLFRRNNGTLVVQSLHGVFKVKDTTTLQQHLVDGRDMIIIRMPKDFPPFPQALKFREPQREERICLVTTNFQTKSMSSMVSDTSCTFPSGDGIFWKHWIQTKDGQCGSPLVSTRDGFIVGIHSASNFTNTNNYFTSVPKNFMELLTNQEAQQWVSGWRLNADSVLWGGHKVFMVKPEEPFQPVKEATQL [K98A], the “area with substrate EALYFQS” value was found to be 0.12, the “area with substrate ECLYFQS” value amounted to 0.0867, the “area with substrate EDLYFQS” value came to 0.134 and the “area with substrate EELYFQS” value is 0.125. In addition, the “area with substrate EFLYFQS” value stood at 0.141, the “area with substrate EGLYFQS” value was found to be 0.0859, the “area with substrate EHLYFQS” value came to 0.0995 and the “area with substrate EILYFQS” value was 0.0915. The “area with substrate EKLYFQS” value worked out at 0.101, the “area with substrate EMLYFQS” value was determined as 0.1, the “area with substrate EPLYFQS” value is 0.116 and the “area with substrate EQLYFQS” value is 0.126. The “area with substrate ETLYFQS” value is 0.125, the “area with substrate EVLYFQS” value is 0.102, the “area with substrate EWLYFQS” value was 0.0866 and the “area with substrate EYLYFQS” value amounted to 0.108.

As to MGESLFKGPRDYNPISSSICHLTNESDGHTTSLYGIGFGPFIITNKHLFRRNNGTLVVQSLHGVFKVKDTTTLQQHLVDGRDMIIIRMNKDFPPFPQKLKFREPQREERICLVTTNFQTKSMSSMVSDTSCTFPSGDGIFWKHWIQTKDGQCGSPLVSTRDGFIVGIHSASNFTNTNNYFTSVPKNFMELLTNQEAQQWVSGWRLNADSVLWGGHKVFMVKPEEPFQPVKEATQL [P89N], the “area with substrate EALYFQS” value is 0.137, the “area with substrate ECLYFQS” value is 0.075, the “area with substrate EDLYFQS” value came to 0.0946 and the “area with substrate EGLYFQS” value came out at 0.0757. For the same variant, the “area with substrate EHLYFQS” value stood at 0.0825, the “area with substrate EILYFQS” value was 0.0647, the “area with substrate EKLYFQS” value was 0.0796 and the “area with substrate ELLYFQS” value was 0.0696. The “area with substrate EMLYFQS” value came to 0.0962, the “area with substrate EPLYFQS” value came to 0.134, the “area with substrate EQLYFQS” value was 0.0744 and the “area with substrate ERLYFQS” value came to 0.0987. In addition, the “area with substrate ESLYFQS” value worked out at 0.0817, the “area with substrate EVLYFQS” value worked out at 0.0787 and the “area with substrate EWLYFQS” value is 0.0755.

In the case of MGESLFKGPRDYNPISSSICHLTNESDGHTTSLYGIGFGPFIITNKHLFRRNNGTLVVQSLHGVFKVKDTTTLQQHLVDGRDMIIIRMSKDFPPFPQKLKFREPQREERICLVTTNFQTKSMSSMVSDTSCTFPSGDGIFWKHWIQTKDGQCGSPLVSTRDGFIVGIHSASNFTNTNNYFTSVPKNFMELLTNQEAQQWVSGWRLNADSVLWGGHKVFMVKPEEPFQPVKEATQL [P89S], the “area with substrate EALYFQS” value is 0.11, the “area with substrate ECLYFQS” value was 0.0773, the “area with substrate EDLYFQS” value amounted to 0.0856 and the “area with substrate EELYFQS” value is 0.0992. Besides, the “area with substrate EFLYFQS” value turned out to be 0.0869, the “area with substrate EGLYFQS” value turned out to be 0.0653, the “area with substrate EILYFQS” value came to 0.0883 and the “area with substrate ELLYFQS” value was 0.0739. For the same variant, the “area with substrate EMLYFQS” value is 0.0853, the “area with substrate EQLYFQS” value stood at 0.0908, the “area with substrate ERLYFQS” value was found to be 0.0938 and the “area with substrate ESLYFQS” value turned out to be 0.0769. Further, the “area with substrate EVLYFQS” value worked out at 0.0783 and the “area with substrate EYLYFQS” value came out at 0.0875.

On to MGESLFKGPRDYNPISSSICHLTNESDGHTTSLYGIGFGPFIITNKHLFRRNNGTLVVQSLHGVFKVKDTTTLQQHLVDGRDMIIIRAPKDFPPFPQKLKFREPQREERICLVTTNFQTKSMSSMVSDTSCTFPSGDGIFWKHWIQTKDGQCGSPLVSTRDGFIVGIHSASNFTNTNNYFTSVPKNFMELLTNQEAQQWVSGWRLNADSVLWGGHKVFMVKPEEPFQPVKEATQL [M88A], for which the “area with substrate EALYFQS” value is 0.103, the “area with substrate ECLYFQS” value came to 0.104, the “area with substrate EDLYFQS” value worked out at 0.145 and the “area with substrate EFLYFQS” value is 0.118. Further, the “area with substrate EILYFQS” value amounted to 0.0654, the “area with substrate EPLYFQS” value was 0.134, the “area with substrate EQLYFQS” value came to 0.105 and the “area with substrate ESLYFQS” value came to 0.0925. For the same variant, the “area with substrate ETLYFQS” value was determined as 0.129, the “area with substrate EVLYFQS” value is 0.0776, the “area with substrate EWLYFQS” value worked out at 0.0899 and the “area with substrate EYLYFQS” value was 0.0977.

As to MGESLFKGPRDYNPISSSICHLTNESDGHTTSLYGIGFGPFIITNKHLFRRNNGTLVVQSLHGVFKVKDTTTLQQHLVDGRDMIIIRMPWDFPPFPQKLKFREPQREERICLVTTNFQTKSMSSMVSDTSCTFPSGDGIFWKHWIQTKDGQCGSPLVSTRDGFIVGIHSASNFTNTNNYFTSVPKNFMELLTNQEAQQWVSGWRLNADSVLWGGHKVFMVKPEEPFQPVKEATQL [K90W], the “area with substrate EALYFQS” value amounted to 0.129, the “area with substrate ECLYFQS” value stood at 0.105, the “area with substrate EDLYFQS” value turned out to be 0.0989 and the “area with substrate EELYFQS” value was determined as 0.112. Besides, the “area with substrate EGLYFQS” value was found to be 0.0818, the “area with substrate EHLYFQS” value stood at 0.0979, the “area with substrate EILYFQS” value is 0.0776 and the “area with substrate EKLYFQS” value came to 0.0806. Also, the “area with substrate ELLYFQS” value was 0.0831, the “area with substrate EMLYFQS” value came out at 0.0779, the “area with substrate EPLYFQS” value is 0.137 and the “area with substrate EQLYFQS” value is 0.12. The “area with substrate ESLYFQS” value came out at 0.114 and the “area with substrate EVLYFQS” value came out at 0.0908.

On to MGESLFKGPRDYNPISSSICHLTNESDGHTTSLYGIGFGPFIITNKHLFRRNNGTLVVQSLHGVFKVKDTTTLQQHLVDGRDMIIIRMPKDCPPFPQKLKFREPQREERICLVTTNFQTKSMSSMVSDTSCTFPSGDGIFWKHWIQTKDGQCGSPLVSTRDGFIVGIHSASNFTNTNNYFTSVPKNFMELLTNQEAQQWVSGWRLNADSVLWGGHKVFMVKPEEPFQPVKEATQL [F92C], for which the “area with substrate EALYFQS” value was 0.108, the “area with substrate ECLYFQS” value stood at 0.0833, the “area with substrate EDLYFQS” value is 0.125 and the “area with substrate EELYFQS” value turned out to be 0.101. In addition, the “area with substrate EGLYFQS” value was 0.105, the “area with substrate EILYFQS” value turned out to be 0.0963, the “area with substrate EMLYFQS” value stood at 0.127 and the “area with substrate EPLYFQS” value was found to be 0.0977. Further, the “area with substrate EQLYFQS” value came to 0.113, the “area with substrate ERLYFQS” value came to 0.0842, the “area with substrate ESLYFQS” value was 0.11 and the “area with substrate EVLYFQS” value stood at 0.0906. For the same variant, the “area with substrate EWLYFQS” value was 0.0926.
